From the GPR68 mutational scans of Howard et al. (2025)
The least precise scores are not listed. Two further conditions of the source, in which the scores hardly spread, are not listed. Read del as a deletion of the residues named and ins as an insertion between two positions. For some assays here: The concentration of ogerin is not given here.

B1: GPR68, Q15743 (parent)
chain: MGNITADNSSMSCTIDHTIHQTLAPVVYVTVLVVGFPANCLSLYFGYLQIKARNELGVYLCNLTVADLFYICSLPFWLQYVLQHDNWSHGDLSCQVCGILLYENIYISVGFLCCISVDRYLAVAHPFRFHQFRTLKAAVGVSVVIWAKELLTSIYFLMHEEVIEDENQHRVCFEHYPIQAWQRAINYYRFLVGFLFPICLLLASYQGILRAVRRSHGTQKSRKDQIQRLVLSTVVIFLACFLPYHVLLLVRSVWEASCDFAKGVFNAYHFSLLLTSFNCVADPVLYCFVSETTHRDLARLRGACLAFLTCSRTGRAREAYPLGAPEASGKSGAQGEEPELLTKLHPAFQTPNSPGSGGFPTGRLA

Legend:
[1] = variants of: B1; experiment: cAMP reporter score (Enrich2 score, wild type = 0); higher = more signal; HEK293T, FACS bins
[2] = variants of: B1; experiment: surface expression score (Enrich2 score, wild type = 0); higher = more signal; HEK293T, FACS bins

Variant | cAMP reporter score ([1]; pH 5.5) | cAMP reporter score ([1]; pH 6) | cAMP reporter score ([1]; pH 6, modulator: ogerin) | cAMP reporter score ([1]; pH 6.5, modulator: ogerin) | surface expression score [2]
V246_L247insGSG | -1.56 | -1.61 | -1.66 | -0.949 | -2.45
L247_L248insG | -0.734 | -1.05 | -1.71 | -0.941 | -2.06
V246del | -1.27 | -1.23 | -2.42 | -1.64 | -2.36
L248_V250del | -0.853 | -0.944 | -1.78 | -1.41 | -2.2
E255G | -1.17 | -0.529 | -1.49 | -1.13 | -0.334
E255M | -1.32 | -0.001 | -0.47 | -0.872 | -1.19
E255S | -0.679 | -0.223 | -0.973 | -1.04 | -0.131
E255C | -1.31 | -2.2 |  | -0.442 | 
E255R | -1.22 | -1.14 | -1.49 | -1.51 | -1.45
E255F | -1.92 | -0.784 |  | -2.85 | -0.047
E255P | -0.996 | -1.03 | -1.49 | -1.72 | 0.207
E255A | -0.361 | -1.24 | -1.15 | -1.77 | -0.928
E255W | -0.834 | -0.505 | -1.15 | -0.643 | 0.104
E255L | -1.19 | -1.75 | -1.06 | -0.888 | -1.5
E255Y | -1.34 | -0.839 | -0.986 | -1.08 | -0.54
E255K | -1.56 | -1.62 | -1.75 | -0.771 | -1.53
E255Q | -1.49 | -0.853 | -1.14 | -1.1 | -0.929
E255D | -0.91 | -0.412 | -0.961 | -0.647 | 0.371
E255H | -1.34 | -0.929 | -1.45 | -1.04 | -0.223
E255T | -0.424 | 0.52 | -1.04 | -0.444 | 1.35
E255V | -1.38 | -1.03 | -1.93 | -0.774 | -1.13

Variant | cAMP reporter score ([1]; pH 5.5) | cAMP reporter score ([1]; pH 6) | cAMP reporter score ([1]; pH 6, modulator: ogerin) | cAMP reporter score ([1]; pH 6.5, modulator: ogerin) | surface expression score [2]
E255I | -1.19 | -1.13 | -1.27 | -1.3 | -1.51
W254_A256del | -0.453 | 0.418 | -2.73 | -1.99 | -1.5
S252_V253del | -1.69 | -1.12 |  | -0.866 | -2.62
E255_A256insGS | -0.684 | -0.556 | -1.11 | -0.911 | 0.771
R251del | -1.71 | -1.79 | -2.23 | -1.11 | -2.38
S257A | 0.156 | -1.53 | -1.01 | -0.659 | -1.8
S257C | -0.219 | -0.306 | -0.331 | -0.649 | -0.897
V250_R251insG | -0.662 |  |  |  | -1.64
S252del | 1.49 | 7.08 | 1.84 | 6.03 | -1.49
R251S | -1.45 | -1.06 | -2.19 | -1.88 | -0.345
R251D | -1.78 |  | -0.693 | -0.992 | 
R251W | -1.34 |  | -1.55 | -1.39 | -0.438
R251M | -1.54 | -0.522 | -1.42 | -1.26 | -1.15
R251E | -1.12 | -1.36 |  | -1.04 | -1.09
R251H | -1.46 | -0.852 | -2.08 | -1.75 | -0.988
R251N | -0.27 | -0.851 | -1.12 |  | 0.218
R251V | -1.11 | -0.932 | -1.09 | -2.55 | -0.577
R251A | -2.3 | -1.11 | -1.39 |  | -0.221
R251K | -0.894 | -0.47 | -1.27 | -1.24 | -0.505
R251L | -2.66 |  |  | -0.903 | 
R251Y | -1.52 | -1.68 | -1.54 | -1.51 | -1.2

Variant | cAMP reporter score ([1]; pH 5.5) | cAMP reporter score ([1]; pH 6) | cAMP reporter score ([1]; pH 6, modulator: ogerin) | cAMP reporter score ([1]; pH 6.5, modulator: ogerin) | surface expression score [2]
R251G | -1.4 | -0.3 | -1.29 | -1.65 | -0.417
R251P | -1.23 | -0.048 | -1.92 | -0.966 | -1.51
R251C | -1.61 | -0.69 |  | -0.89 | -2.12
R251T | -1.4 | -0.643 | -1.9 | -1.55 | 0.399
R251I | -0.71 | -0.466 | -0.966 | -0.627 | -0.045
V250_S252del | -0.445 | -1.17 | -1.82 | -1.34 | -2.31
V253I | 2.07 | 2.52 | 1.91 | 2.95 | 1.09
V253D | 0.297 | -0.849 | -0.747 | -0.203 | -1.85
V253N | -1.08 | -1.21 | -1.59 | -0.287 | -1.46
V253L | -0.806 | -2 | -1.48 | -1.22 | -0.91
V253G | 0.608 | 0.305 | 0.241 | 0.244 | -0.4
V253S | 0.615 | 0.287 | 0.84 | 0.335 | 0.046
V253M | 0.149 | 0.127 | 0.129 | -0.321 | -0.114
V253H | 0.387 | -0.187 | 0.451 | -0.417 | -0.061
V253F | 0.64 | 2.29 | 0.229 | 0.908 | 0.407
V253P | -0.422 | -1.46 | -2.19 | -1.02 | -1.8
V253E | 1.28 |  | 1.39 | -0.555 | 0.262
V253R | 0.913 | -0.373 | 0.772 | -0.048 | 0.412
V253K | 1.12 |  | 1.11 | -0.071 | -0.193
V253A | 0.754 | 0.316 | 1.42 | -0.006 | 0.493
V253W | 1.02 | 2.68 | 1.82 | 0.892 | 2.07
